Laboratory results published in the supplement of paper PMC10981050.
Values joined by “and” are separate entries in the source; they are usually repeats but may differ in a detail not shown here. Equal values may be shown once. The entries are a selection whose mix differs from that of the whole data set.

How the values were obtained:
Assay in all cases: cell viability relative to vehicle control; higher = less cytotoxic
Settings in all cases: 10 µM
K562 = tested on: K562
Method in brief: (§1)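 Each screen used CRISPR-edited mutant and wild-type clones from four leukaemia lines. Compounds were acoustically dispensed at a single 10 µM dose, and CellTiter-Glo luminescence was read after 48 h with the supernatant first removed. Viability was analysed in Genedata Screener and given as percent of the on-plate vehicle control.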

MARIMO = tested on: MARIMO
Method in brief: as §1

MOLM14 = tested on: MOLM14
Method in brief: as §1

OCI-AML2 = tested on: OCI-AML2
Method in brief: as §1

Row | Compound | cell viability (K562; SRSF2 genotype: SRSF2 P95H/wt) | cell viability (K562; SRSF2 genotype: SRSF2 wt/wt) [%] | cell viability (MARIMO; SRSF2 genotype: SRSF2 P95H/wt) [%] | cell viability (MARIMO; SRSF2 genotype: SRSF2 wt/wt) [%] | cell viability (MOLM14; SRSF2 genotype: SRSF2 P95H/wt) [%] | cell viability (MOLM14; SRSF2 genotype: SRSF2 wt/wt) [%] | cell viability (OCI-AML2; SRSF2 genotype: P95H/wt) [%] | cell viability (OCI-AML2; SRSF2 genotype: wt/wt) [%]
1 | Cc1nc2c(-c3cnc(N)nc3)nc(N3CCOCC3)nc2n1C(C)C | 44.4% and 43% | 37.7 | 42.6 | 39.5 | 27.7 | 25.6 | 8.06 | 16.9
2 | CN1C2CCC1CC(OC(=O)C(O)c1ccccc1)C2 (stereo unspecified) [Homatropine Bromide] |  |  | 104 | 118 | 106 | 105 |  | 
3 | COC(=O)C(CCCN=C(N)N)NS(=O)(=O)c1ccc(C)cc1 (stereo unspecified) | 109% and 104% | 114 | 99.5 | 99 | 102 | 107 | 96.6 | 117
4 | Cc1ccccc1-n1c(Cn2nc(-c3cccc(O)c3)c3c(N)ncnc32)nc2cccc(C)c2c1=O | 89.5% and 101% | 88.4 | 98.3 | 88.4 | 84.7 | 76.6 | 85.5 | 82.2
5 | Cc1ccc(C(=O)NCCCCCC(=O)Nc2ccccc2N)cc1 | 70.3% and 81.1% | 83 | 50.5 | 47.1 | 39.2 | 30.1 | 29.4 | 42.5
